Source: PubChem BioAssay (Tox21)
The shares of active, inactive and inconclusive entries below differ from those in the screen. Potencies of inconclusive entries are left out as doubtful fits. Activity calls are given as the source filed them. Calls follow the shape of the dose curve; as a rule, active = well fitted cell-killing curve with a large enough effect in the repeat runs; inconclusive = weak or mixed curves, or effect the other way; inactive = flat fitted curve, though single readings scatter.

assay: Caspase-3/7 induction in HepG2 cells by small molecules, qHTS cell viability counter screen (AID 1346981); settings: CellTiter-Fluor fluorescence, 17 h; series mostly up to 92.4 µM; also: nearly all actives have a fitted effect of over 30% in size
Outline: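 Wild-type HepG2 cells, 2,000/well, settled 5 hr at 37 C, 5% CO2 before compound addition. Viability read by CellTiter-Fluor fluorescence, reagent added after 16 hr compound exposure, then 1 hr at 37C, in the same wells as the caspase read.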
Potency is read from the fitted curve at half-maximal effect; tags tell the direction and shape of the fitted curve.

| SMILES | Potency |
| --- | --- |
| O=C(c1ccc(O)cc1)c1ccc(Cl)cc1 | inactive |
| CC1=C(/C=C/C(C)=C\C=C\C(C)=C\C(=O)O)C(C)(C)CCC1 | inconclusive [cytotoxic, partial curve] |
| O=C(Nc1ccccc1)c1ccccc1O | inconclusive [cytotoxic, single point] |
| O=C(OCC1CO1)C1CCCCC1C(=O)OCC1CO1 (centres undefined) | inconclusive [cytotoxic, partial curve] |
| CN1CCN(Cc2cc(-c3ccc4[nH]c(=O)oc4c3)co2)[C@@H](c2ccc(F)cc2)C1 | inconclusive [cytotoxic, partial curve] |
| CCc1cc2cc(OC)c(OC)cc2c(Cc2ccccc2)n1 | inconclusive [cytotoxic, partial curve, poor fit] |
| CCCCCC(C)OC(=O)COc1ccc(Cl)c2cccnc12 (centres undefined) | inactive |
| CC1(C)[C@@H](O)CC[C@]2(C)[C@H]3C(=O)C=C4[C@@H]5C[C@@](C)(C(=O)O)CC[C@]5(C)CC[C@@]4(C)[C@]3(C)CC[C@@H]12 | inconclusive [cytotoxic, single point] |
| CCCCC(CC)COC(=O)CCCCCCCC(=O)OCC(CC)CCCC (centres undefined) | inconclusive [cytotoxic, partial curve] |
